Laboratory results as given in PubChem BioAssay (NCI).
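Five compound concentrations were applied to cells in 96-well plates for 48 hours; endpoints were derived by simple linear interpolation of the resulting dose-response curve. GI50 marks 50% less growth.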 Some entries of the source have several records that differ or are many. The list is limited to them. An entry can have further records. A record mostly stands for its own series of concentrations, which the source does not state; a value can be the end of its range.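 TGI marks complete inhibition of growth.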

Columns and labels:
Assay in all cases: NCI-60 cell line screen, 48 h
A498 renal = test system: A498 renal
ACHN renal = test system: ACHN renal
CCRF-CEM leukemia = test system: CCRF-CEM leukemia
COLO 205 colon = test system: COLO 205 colon
EKVX NSCLC = test system: EKVX NSCLC
HCT-116 colon = test system: HCT-116 colon
HCT-15 colon = test system: HCT-15 colon
HL-60(TB) leukemia = test system: HL-60(TB) leukemia
HOP-62 NSCLC = test system: HOP-62 NSCLC
HOP-92 NSCLC = test system: HOP-92 NSCLC
IGROV1 ovarian = test system: IGROV1 ovarian
KM12 colon = test system: KM12 colon
LOX IMVI melanoma = test system: LOX IMVI melanoma
M14 melanoma = test system: M14 melanoma
MALME-3M melanoma = test system: MALME-3M melanoma
MOLT-4 leukemia = test system: MOLT-4 leukemia
NCI-H226 lung = test system: NCI-H226 lung
NCI-H23 lung = test system: NCI-H23 lung
NCI-H460 lung = test system: NCI-H460 lung
NCI-H522 lung = test system: NCI-H522 lung
OVCAR-3 ovarian = test system: OVCAR-3 ovarian
OVCAR-5 ovarian = test system: OVCAR-5 ovarian
RXF 393 renal = test system: RXF 393 renal
SF-268 CNS = test system: SF-268 CNS
SF-295 CNS = test system: SF-295 CNS
SF-539 CNS = test system: SF-539 CNS
SK-MEL-28 melanoma = test system: SK-MEL-28 melanoma
SK-MEL-5 melanoma = test system: SK-MEL-5 melanoma
SNB-19 CNS = test system: SNB-19 CNS
SNB-75 CNS = test system: SNB-75 CNS
SR leukemia = test system: SR leukemia
U251 CNS = test system: U251 CNS
UACC-257 melanoma = test system: UACC-257 melanoma
UACC-62 melanoma = test system: UACC-62 melanoma
UO-31 renal = test system: UO-31 renal
XF 498 CNS = test system: XF 498 CNS
MDA-N = test system: MDA-N
NCI/ADR-RES ovarian = test system: NCI/ADR-RES ovarian
OVCAR-4 ovarian = test system: OVCAR-4 ovarian
OVCAR-8 ovarian = test system: OVCAR-8 ovarian
PC-3 prostate = test system: PC-3 prostate
RPMI-8226 leukemia = test system: RPMI-8226 leukemia
SK-OV-3 ovarian = test system: SK-OV-3 ovarian
SN12C renal = test system: SN12C renal
SW-620 colon = test system: SW-620 colon
DU-145 prostate = test system: DU-145 prostate
CAKI-1 renal = test system: CAKI-1 renal
K-562 leukemia = test system: K-562 leukemia

## COc1cccc2c1C(=O)c1c(O)c3c(c(O)c1C2=O)C[C@@](O)(C(C)=O)C[C@@H]3OC1CC(N(C)C)C(O)C(C)O1 (stereo partly drawn)
A498 renal
  TGI: 6.02 nM, 341 nM, 207 nM
ACHN renal
  TGI: 8.19 nM and 3.16 µM
CCRF-CEM leukemia
  TGI: 9.27 nM, 1.15 µM, 217 nM
COLO 205 colon
  TGI: 6.89 nM, 217 nM, 76.8 nM
EKVX NSCLC
  TGI: 9.48 nM, 475 nM, 353 nM
HCT-116 colon
  TGI: 4.4 nM and 371 nM
HCT-15 colon
  TGI: 7.78 nM, 1.65 µM, 538 nM
HL-60(TB) leukemia
  TGI: 7.84 nM, 412 nM, 219 nM
HOP-62 NSCLC
  TGI: 6.91 nM, 725 nM, 293 nM
HOP-92 NSCLC
  TGI: 7.86 nM, 510 nM, 139 nM
IGROV1 ovarian
  TGI: 9.32 nM, 1.29 µM, 1.84 µM
KM12 colon
  TGI: 8.33 nM, 1.73 µM, 289 nM
LOX IMVI melanoma
  TGI: 3.27 nM, 155 nM, 52.7 nM
M14 melanoma
  TGI: 6.66 nM and 206 nM
MALME-3M melanoma
  TGI: 264 nM and 25.5 nM
MOLT-4 leukemia
  TGI: 4.38 nM, 111 nM, 44 nM
NCI-H226 lung
  TGI: 2.15 nM, 423 nM, < 21.8 nM
NCI-H23 lung
  TGI: 7.18 nM, 338 nM, 238 nM
NCI-H460 lung
  TGI: 7.1 nM, 1.04 µM, 116 nM
NCI-H522 lung
  TGI: 7.12 nM, 301 nM, 234 nM
OVCAR-3 ovarian
  TGI: 9.26 nM, 834 nM, 791 nM
OVCAR-5 ovarian
  TGI: 7.93 nM, 770 nM, 237 nM
RXF 393 renal
  TGI: 9.71 nM, 208 nM, 83.8 nM
SF-268 CNS
  TGI: 7.98 nM, 631 nM, 399 nM
SF-295 CNS
  TGI: 7.69 nM, 412 nM, 364 nM
SF-539 CNS
  TGI: 6.99 nM, 230 nM, 98.7 nM
SK-MEL-28 melanoma
  TGI: 7.28 nM, 241 nM, 181 nM
SK-MEL-5 melanoma
  TGI: 6.28 nM, 194 nM, 147 nM
SNB-19 CNS
  TGI: 7.27 nM, 2.46 µM, 11.3 µM
SNB-75 CNS
  TGI: 6.25 nM, 442 nM, 174 nM
SR leukemia
  TGI: 3.44 nM and 36.1 nM
U251 CNS
  TGI: 8.5 nM, 5.2 µM, 356 nM
UACC-257 melanoma
  TGI: 7.76 nM, 341 nM, 176 nM
UACC-62 melanoma
  TGI: 6.28 nM, 179 nM, 70.6 nM
UO-31 renal
  TGI: 5.29 nM, 323 nM, 177 nM
XF 498 CNS
  GI50: 104 nM and 10 nM

## CC[C@@]1(O)C(=O)OCc2c1cc1n(c2=O)Cc2cc3c(Cl)c4c(cc3nc2-1)OCO4
HOP-62 NSCLC
  TGI: 541 nM and 10.5 µM
MDA-N
  GI50: 41.3 nM and 5.2 µM
MOLT-4 leukemia
  TGI: 1.02 nM and 167 nM
NCI-H23 lung
  TGI: 6.41 µM and 28.4 nM
NCI-H522 lung
  GI50: 3.44 nM and 85 nM
NCI/ADR-RES ovarian
  TGI: 228 nM and > 100 µM
OVCAR-4 ovarian
  GI50: 69.1 nM and 4.19 µM
  TGI: 2.79 µM and > 100 µM
OVCAR-8 ovarian
  TGI: 2.02 µM and > 100 µM
PC-3 prostate
  GI50: 293 nM and 28.4 nM
RPMI-8226 leukemia
  GI50: < 1 nM and 14.6 nM
SK-OV-3 ovarian
  TGI: 4.98 µM and > 100 µM
SN12C renal
  TGI: 8.86 µM and > 100 µM
SW-620 colon
  GI50: < 1 nM and 26.5 nM
U251 CNS
  TGI: 124 nM and 1.69 µM
UO-31 renal
  TGI: 316 nM and 23 nM

## COc1ccc(C2c3cc4c(c(OC)c3CC3OCC(=O)C32)OCO4)cc1OC (stereo not drawn)
DU-145 prostate
  TGI: 136 nM and > 100 µM
HCT-116 colon
  TGI: 426 nM and > 100 µM
NCI-H23 lung
  TGI: 978 nM and 46.2 µM

## O=C1/C(=C\c2ccc([N+](=O)[O-])cc2)CS(=O)(=O)C/C1=C/c1ccc([N+](=O)[O-])cc1
CAKI-1 renal
  TGI: 676 nM and 7.11 µM
K-562 leukemia
  GI50: 44.3 nM and 1.04 µM
LOX IMVI melanoma
  TGI: 152 nM and 1.97 µM
MOLT-4 leukemia
  GI50: 73 nM and 16.7 µM
  TGI: 553 nM and > 100 µM
NCI-H226 lung
  TGI: 400 nM and 8.42 µM
OVCAR-5 ovarian
  TGI: 337 nM and 3.64 µM
SR leukemia
  TGI: 626 nM and > 100 µM
